# Experimental data as given in the supplement of paper PMC11417369.
# ± gives the standard deviation of the averaged measurements. This is one part of the list.
# System: PfAP2-LT AP2 domain (GST-tagged)
# Experiment: gcPBM binding intensity (ln(normalized median fluorescence intensity)); higher = stronger DNA binding
# Method in brief: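 In this array assay, P. falciparum DNA-binding domains with a GST tag, expressed in E. coli, were applied for 1 h to primer-extended double-stranded 36-bp intergenic genomic probes and negative controls on an Agilent 4 × 180k array. Bound protein was visualised with Alexa488 anti-GST antibody at 488 nm. Binding intensity is the highest Masliner-normalised natural-log median intensity across replicate spots of either probe orientation.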
row,Sequence,gcPBM binding intensity (ln)
1,TATATGCATATACATACACACATAACACATACGTTT [CACACA_site3832],9.28 ± 0.35
2,ATATGTCACTTGTATACACACATATAGATTTCAATC [CACACA_site7519],9.28 ± 0.26
3,TTTCTAATTCTTAGTGGTACACAGTTCTGCTGATAT [XGTACX_site2391],8.64 ± 0.53
4,TTGTTTTTTTTTGGCTGTACGTTCATAAATTTTTTT [XGTACX_site4165],8.82 ± 0.49
5,TTTTCATAAAATCATTGTACATTTATCGTATATTAA [XGTACX_site3855],8.55 ± 0.51
6,ATATTGTAAGTAAACACACACACATATATATGTATA [CACACA_site8124],9.53 ± 0.35
7,AAAATATCTTATATATGTACATATTTATATTTATAT [XGTACX_site6027],8.86 ± 0.39
8,ACAATTTACACTTAAACACACAAAAAAAAATTATAT [CACACA_site2065],8.93 ± 0.42
9,TGTTTTATTTTATTAGTGCATTTTTATTTATAATAG [GTGCAC_site9453],8.63 ± 0.48
10,AAGGTAGAAATATGTTGTACGGTTTGGAGGAAGCAA [XGTACX_site1105],8.77 ± 0.48
11,GCATCGATCAAACATACACACATGGTTAATAAAAAT [CACACA_site8651],9.24 ± 0.47
12,ACATATATATTCATATGTACATATACATACATACAT [XGTACX_site4563],9.13 ± 0.47
13,GACAAAAAATTAAAATAAAATAATAATATAATAAAA [GTGCAC_negctrl_site234],8.55 ± 0.67
14,ATATAATAGTTATATTGTACATAAATTATACACCTT [XGTACX_site628],8.7 ± 0.48
15,TATAAACACCCATATAAACACACATATAAACCAACA [CACACA_site8790],9.31 ± 0.28
16,ATACGCACACATATATGTACATATTGTATATATATA [XGTACX_site3962],9.35 ± 0.44
17,GGAATGGTACATGATACACACACGCACATATATATA [CACACA_site5825],9.45 ± 0.32
18,TATATTAAACAATATACACACATTAATGTATACATA [CACACA_site2755],8.89 ± 0.35
19,AATATATGTATATATTTTTTTTTTTCCCTTACAAAT [GTGCAC_negctrl_site428],8.38 ± 0.42
20,GTTAAAATTGGGGACGCATGTTCCTTTCCTTTTTTT [TGCATGCA_site1002],8.48 ± 0.45
21,TTATAAATGTAACGATGTACTTTTAAAAGTTTCCTT [XGTACX_site109],8.57 ± 0.56
22,ATAGCTGTATTTAATACACACAAAACTTTCATTCCA [CACACA_site5868],8.91 ± 0.45

row,Sequence,gcPBM binding intensity (ln)
1,GAGTGAGCTAATAAAAGTACGTAATAAACAAACGCA [XGTACX_site131],9.02 ± 0.52
2,ACCATGAAAATATTATGTACATATGTATTATATATA [XGTACX_site408],8.87 ± 0.33
3,TTTTTTTGTTTTGTTTTTTTTTTTTTTTTTTTTTTG [CACACA_negctrl_site570],8.46 ± 0.54
4,TTACCGTAAAAATTTTGTACATAAAATAATATATAA [XGTACX_site532],8.56 ± 0.46
5,CACATACATATATATACACACAAATATATATACACA [CACACA_site8164],9.31 ± 0.34
6,GTATGTGTGTCAAGTCGTACTTACCTTTAAATTTTT [XGTACX_site2507],9.11 ± 0.35
7,GATATAAAATATTGGTGTACTTTTTTTTTTTTTTTT [XGTACX_site7174],8.63 ± 0.39
8,TTTTTTTTTTTTTTTTTTTCTATTTTACTGTTTCGT [CACACA_negctrl_site850],8.46 ± 0.72
9,ATAATTAATAAATAATGTACATATATATTATATTTT [XGTACX_site8546],8.59 ± 0.47
10,TGTGAAGTACCGAATGTGCACTGTGTGTGTTCTTTT [GTGCAC_site9613],9.34 ± 0.43
11,TATATATATGGACACACACACATATAAATAAATAAA [CACACA_site4406],9.71 ± 0.49
12,TTTTTATATTTTTGCACACATTCTTTACTCTTCAAA [CACACA_site2210],9.22 ± 0.42
13,TTAAAAAAAAAACACACACACATACACATATATATA [CACACA_site3299],9.91 ± 0.2
14,ATGATTATTTTAAAAAGTACTAATTATTATTTTTTT [XGTACX_site7242],8.34 ± 0.47
15,ATACACATTCGAAATAACAAAAAAATACATACACAT [GTGCAC_negctrl_site628],9.18 ± 0.35
16,AAAAAAAATAATAATACACACAATATGATATGTACA [CACACA_site850],8.96 ± 0.43
17,GAATATGAATATTTGCGTACTTATATAACTGTTCTA [XGTACX_site883],8.91 ± 0.45
18,TACTATAAGATATATACACACAAGAAATACAAAACG [CACACA_site6764],9.38 ± 0.43
19,TATTTTTCCATAAAAATTTATATAGAAACAAATAAT [GTGCAC_negctrl_site103],8.18 ± 0.28
20,ATTATTTTAATTTTAATTTTTTTTTTTTTTTGTTTT [CACACA_negctrl_site1063],8.38 ± 0.57
21,CCCTTTTATTAAAATTCACACACATAAATTTTTATA [CACACA_site8611],8.94 ± 0.46
22,ATATATGTATATTTTTGTACGCATAAATATATTTTT [XGTACX_site827],8.7 ± 0.38
